Paper PMC4336329 (PLoS ONE, 2015)
The campaign covered roughly 310,000 compounds. About 14,000 (4.5%) showed an effect of 50% or more. The effect is printed as a negative number. The list shows a part of the results.

target: human ether-à-go-go-related gene (hERG) potassium channel (human, UniProt Q12809); assay: primary screen, population patch clamp on CHO cells stably expressing hERG
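Note: peak tail current of the secondary pulse compared with the same well before compound.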

Sequence of human ether-à-go-go-related gene (hERG) potassium channel (Q12809 whole entry, looked up): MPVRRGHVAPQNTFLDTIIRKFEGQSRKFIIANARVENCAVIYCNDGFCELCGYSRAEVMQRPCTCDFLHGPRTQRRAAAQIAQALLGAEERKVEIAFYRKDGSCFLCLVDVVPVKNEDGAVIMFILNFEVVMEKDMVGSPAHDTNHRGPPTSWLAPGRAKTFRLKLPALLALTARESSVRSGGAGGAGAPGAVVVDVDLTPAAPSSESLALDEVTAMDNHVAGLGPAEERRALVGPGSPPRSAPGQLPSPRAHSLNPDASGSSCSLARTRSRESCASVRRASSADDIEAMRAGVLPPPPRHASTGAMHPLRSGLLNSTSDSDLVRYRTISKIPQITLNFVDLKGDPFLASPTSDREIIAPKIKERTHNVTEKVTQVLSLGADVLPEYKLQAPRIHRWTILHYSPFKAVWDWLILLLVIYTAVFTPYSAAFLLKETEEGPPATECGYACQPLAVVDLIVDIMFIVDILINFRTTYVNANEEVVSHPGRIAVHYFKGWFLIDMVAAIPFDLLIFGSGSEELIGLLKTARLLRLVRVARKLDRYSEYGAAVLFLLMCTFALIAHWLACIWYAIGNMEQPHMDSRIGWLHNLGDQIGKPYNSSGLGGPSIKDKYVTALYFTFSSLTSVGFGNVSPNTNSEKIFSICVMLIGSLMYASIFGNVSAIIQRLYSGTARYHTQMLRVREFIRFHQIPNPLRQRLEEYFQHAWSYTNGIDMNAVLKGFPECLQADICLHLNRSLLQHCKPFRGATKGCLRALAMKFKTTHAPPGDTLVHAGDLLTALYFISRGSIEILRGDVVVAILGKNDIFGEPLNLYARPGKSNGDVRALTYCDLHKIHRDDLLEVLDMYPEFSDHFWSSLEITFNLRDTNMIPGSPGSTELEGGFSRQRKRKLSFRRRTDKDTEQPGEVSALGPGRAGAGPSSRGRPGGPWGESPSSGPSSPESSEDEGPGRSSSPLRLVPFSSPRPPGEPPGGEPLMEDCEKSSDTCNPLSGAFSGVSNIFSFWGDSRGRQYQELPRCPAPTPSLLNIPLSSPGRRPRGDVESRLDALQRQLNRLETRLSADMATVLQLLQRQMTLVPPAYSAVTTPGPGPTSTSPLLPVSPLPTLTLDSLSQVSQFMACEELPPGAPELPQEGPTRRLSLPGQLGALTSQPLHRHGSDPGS

Compound	hERG current change (%, negative = inhibition) at 10uM [%]
CCOC(=O)C1CCN(C(=O)Nc2ccc3c(c2)nc(C)n3C)CC1	0.694
COc1ccc(CNC(=O)C(c2ccncc2)N(C(=O)Cc2cccs2)c2ccccc2C)cc1 (centres unmarked)	-2.18
COC(=O)c1cn(C)c2ccc(S(=O)(=O)N3CCCC3)cc2c1=O	2.16
O=C(NCCc1ccc(Cl)cc1)C(=O)Nc1cc2c3c(c1)CC(=O)N3CCC2	-6.93
Cc1sc2ncnc(SCC(=O)NNC(=O)c3ccco3)c2c1C	4.49
O=c1cc(-c2ccc3c(c2)OCO3)oc2ccccc12	-3.3
CCCCCCCCCNC(=O)[C@H](NC(=O)COc1ccccc1)[C@@H]1NC(C(=O)OC)C(C)(C)S1 (some centres unmarked)	-0.969
Cc1c(C#N)c2ccccc2n1CC(=O)N1CCCC1	8.41
O=C(Nc1ccc2ccccc2c1)N1CCCN(CCOc2ccccc2)CC1	-66
CC(C)CCn1cnc2c(oc3nc4c(cc32)CCCC4)c1=O	-16.6
C/C(=C\C(=O)c1ccc(Br)cc1)NCc1ccc(C)cc1	1.92
CCOC(=O)c1ccc(N2C(=O)C3CCOc4ccccc4C32)cc1 (centres unmarked)	12.1
CCc1nc(SCc2cccnc2)[nH]c(=O)c1C	22.3
CCC(C)NC(=O)C1(C)CCC(=O)N1CCc1ccc(OC)c(OC)c1 (centres unmarked)	-5.3
S=C(NCCc1cnc[nH]1)NC1CCCC1	23.2
Cc1ccsc1/C=C(\C(=O)c1ccc(OC(C)C)cc1)c1nc2ccccc2o1	19.2
O=C(NCCC1=CCCCC1)C1CCCN(S(=O)(=O)c2cccc3cccnc23)C1 (centres unmarked)	-34.1
COc1ccc(-n2ncc3c(=O)n(CC(=O)Nc4ccc(S(=O)(=O)N5CCOCC5)cc4)cnc32)cc1	-10.3
CN1C(=O)C(=O)N(CC(=O)N2CCc3ccccc32)C1=O	1.68
Clc1ccc(-c2ccc(SCc3ccccn3)nn2)cc1	2.07
CC(=O)COc1ccc2c(c1C)O/C(=C\c1ccco1)C2=O	6.17
CCOC(=O)CN1C(=O)C(O)(CC(=O)c2ccccn2)c2ccccc21 (centres unmarked)	14.6

Compound	hERG current change (%, negative = inhibition) at 10uM [%]
Cc1ccc(C(=O)O/N=C/c2c(C)nn(C)c2Cl)cc1	-8.98
CN1CCN(C=NC2=NN(c3cccc(C(F)(F)F)c3)CC2)CC1	-23.9
CCn1cc(Cl)c(C(=O)Nc2ccc(OC)c(OC)c2)n1	11.2
COc1ccc(CN2CC(C(=O)NCCC(C)C)CC2=O)cc1 (centres unmarked)	10.5
COc1cccc(Cn2cnc3c(sc4nc(C)cc(C)c43)c2=O)c1	12.2
COc1ccccc1-c1cc(-c2ccc(C)cc2)nc(SCc2nnc(-c3ccccc3)o2)c1C#N	18.3
Cc1ccc(S(=O)(=O)N(CC(=O)NCc2ccccc2Cl)C(=O)N2CCN(C)CC2)cc1	-6.5
N/C(=N\OC(=O)CSc1ccccc1)c1ccncc1	0.55
COC(=O)c1ccc(/C=N/NC(=O)CC(=O)NC2CCCCC2)cc1	22
COc1ccccc1/C=C1\SC(=S)N(CCC(=O)NCCCn2ccnc2)C1=O	-44.7
COc1ccc(CCNC(=O)COc2ccc(-c3ccc(C)cc3)cc2)cc1OC	-9.64
COc1ccc(-c2nc3n(n2)C(c2ccncc2)C(C(N)=O)=C(C)N3)cc1 (centres unmarked)	0.391
CCN(Cc1cccs1)C(=O)c1cccc(S(=O)(=O)N2CCN(C)CC2)c1	-14.1
CC1CCc2[nH]c3ccc(C(=O)N(C)CC(=O)Nc4ccccc4Br)cc3c2C1 (centres unmarked)	7.84
CC(=O)Nc1ccc(S(=O)(=O)Nc2nc3ccccc3nc2Nc2cccc(O)c2)cc1	10.7
COc1ccc(Nc2nc(C(=O)NCc3ccco3)cs2)cc1	-14.4
O=C(O)c1cccc(-c2ccc(/C=c3/sc4nc5ccccc5n4c3=O)o2)c1	8.79
O=C(NN=C1CCCCCCC1)c1ccc(F)cc1	1.58
O=[N+]([O-])c1ccc(O)c(C=Nc2cccc3ncccc23)c1	7.86
CCOC(=O)/C(=C/C=C1\Sc2cc(OCC)c(OCC)cc2N1CC)C(C)=O	3.32
COc1ccc(-c2nnc(SCc3nc4ccccc4s3)n2C(C)C)cc1	-67.7
CCC(NC(=S)NC1CCCCC1)c1ccc(C(C)C)cc1 (centres unmarked)	13.7

Compound	hERG current change (%, negative = inhibition) at 10uM [%]
COc1ccccc1NC(=O)COC(=O)c1ccc2c(c1)OCCO2	0.67
COC(=O)C1=CN(Cc2ccc(C)cc2)C=C(C(=O)OC)C1c1cc(OC)c(OC)c(OC)c1	-24.8
CCOC(=O)c1cncc(C#CCO)c1	-3.9
Cc1ccc(/C(O)=C/C(=O)C(=O)NC23CC4CC(CC(C4)C2)C3)cc1	4.44
COc1ccc(CNC(=O)COC(=O)c2ccc(C)c(S(=O)(=O)N3CCOCC3)c2)cc1OC	6.13
COC(=O)CN1C(=O)C(C)(C)Oc2ccc(C(=O)NC3CC3)cc21	0.0728
O=C(CSc1nnc(C2CC2)n1-c1ccccc1)NCCc1ccccc1	-7.68
CCCCNC(=O)c1cn(C)c2ccc(S(=O)(=O)N3CCCC3)cc2c1=O	12.6
COC(=O)C1=C(C)NC(=O)CC1c1ccc(C(=O)OC)cc1 (centres unmarked)	16.7
COc1ccc(S(=O)(=O)c2c(N)n(Cc3ccco3)c3nc4ccccc4nc23)cc1	-10.4
c1cncc(-c2nn[nH]n2)c1	7.46
C=CCn1c(SCC(=O)NC2CCCC2)nnc1-c1cccnc1	6.96
CN1/C(=C\C=N\NC(=O)c2ccc(O)cc2)C(C)(C)c2ccccc21	-23.5
CCC1CCCCN1Cc1ccc(CNC(=O)CCc2nnc3ccc(N4CCCCC4)nn23)o1 (centres unmarked)	18.2
c1cnc2ccc(C(c3nnnn3C3CCCC3)N3CCSCC3)cc2c1 (centres unmarked)	-3.72
CC(C(=O)Nc1ccccc1F)N1CCN(C)CC1.O=C(O)C(=O)O (centres unmarked)	11.9
COc1ccc(CCN2CCCC(CN(C)C(=O)c3ccoc3)C2)cc1 (centres unmarked)	-72.9
Cc1cccc(C)c1NC(=O)CN1CCN(CC(=O)NCC2(N3CCCCC3)CCCCC2)CC1	-9.24
O=C(Cn1ncc2c([nH]c3ccccc32)c1=O)N1CCCCC1	10.6
O=C(NCc1ccco1)c1ccc2c(c1)C(=O)N(C1CCCCC1)C2=O	-17.9
CCOc1cc(C)c(Cl)cc1S(=O)(=O)n1cnc2ccccc21	-4.88
Cc1cc(C(=O)N/N=C/C=C/c2cccc([N+](=O)[O-])c2)n[nH]1	-3.28

Compound	hERG current change (%, negative = inhibition) at 10uM [%]
CC(C)CCNC(=O)c1cccc(S(=O)(=O)N2CCc3ccccc32)c1	2.44
CC(C)Cn1c(N)c(C(=O)COC(=O)c2cnccn2)c(=O)n(C)c1=O	-14.1
O=C(Nc1cccc(-c2ccc(N3CCOCC3)nn2)c1)c1ccc([N+](=O)[O-])cc1	-11.4
COC(=O)Cc1[nH]n(-c2nc3ccccc3s2)c(=O)c1C(C)=Nc1ccc(C)cc1	5.94
CCC(C(=O)Nc1ccsc1C(=O)OC)c1ccccc1 (centres unmarked)	1.56
CCOC(=O)C(NC(=O)c1ccc(OC)cc1)(N1CCCC1=O)C(F)(F)F (centres unmarked)	6.11
COc1ccc2c(O)c(-c3c(C)cc(C)cc3C)c(=O)[nH]c2c1	4.32
O=C(NCC(=O)N(c1ccc(F)cc1)C(C(=O)NC1CCCC1)c1cccnc1)c1ccco1 (centres unmarked)	13.5
COc1ccc(CCNCc2csc3nc4ccccc4n23)cc1OC.Cl	-19.4
CCOc1ccc2oc(C(=O)N(Cc3nnc(-c4ccccc4Cl)o3)C3CC3)c(C)c2c1	-20.9
CC(=O)Nc1cccc(C(=O)OC(C)C(=O)Nc2ccc(S(=O)(=O)N3CCCC3)cc2)c1 (centres unmarked)	9.05
CCOc1ccc(/C(O)=C2/C(=O)C(=O)N(CCOCCO)C2c2cccnc2)cc1 (centres unmarked)	-3.81
CC(C)CNC(=O)C1CCCN(C(=O)NCc2ccccc2)C1 (centres unmarked)	2.78
Cc1ccc(C(=O)Nc2cccnc2)cc1S(=O)(=O)N1CCCC1	0.635
O=C(Nc1ccc2c(c1)OCO2)c1sc2cc(Cl)ccc2c1Cl	-1.24
O=C(NCCC1CCCCN1S(=O)(=O)c1ccc(F)cc1)C(=O)NCCN1CCOCC1 (centres unmarked)	-22.5
O=C(CSc1ccccn1)N1CCN(C(=O)CSc2ccccn2)CC1	-14.1
O=C(O)c1cncc(Br)c1	27.3
CCN(CC)S(=O)(=O)c1ccc(N2CCOCC2)c(NS(=O)(=O)c2ccc(OC)cc2)c1	7.66
Cc1ccc(NC(=O)C2CCN(S(=O)(=O)c3ccc4c(c3)NC(=O)C(C)S4)CC2)cc1C (centres unmarked)	11.8
